# Results taken from paper PMC4336329 (PLoS ONE, 2015).
# The whole screen tested about 310,000 compounds, of which about 14,000 (4.5%) showed an effect of 50% or more. The effect is printed as a negative number. The list shows a part of the results.
# Molecular target: human ether-à-go-go-related gene (hERG) potassium channel (human, UniProt Q12809)
# Assay: primary screen, population patch clamp on CHO cells stably expressing hERG
# 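Note: peak tail current of the secondary pulse compared with the same well before compound.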
# human ether-à-go-go-related gene (hERG) potassium channel, sequence (Q12809 whole entry, looked up): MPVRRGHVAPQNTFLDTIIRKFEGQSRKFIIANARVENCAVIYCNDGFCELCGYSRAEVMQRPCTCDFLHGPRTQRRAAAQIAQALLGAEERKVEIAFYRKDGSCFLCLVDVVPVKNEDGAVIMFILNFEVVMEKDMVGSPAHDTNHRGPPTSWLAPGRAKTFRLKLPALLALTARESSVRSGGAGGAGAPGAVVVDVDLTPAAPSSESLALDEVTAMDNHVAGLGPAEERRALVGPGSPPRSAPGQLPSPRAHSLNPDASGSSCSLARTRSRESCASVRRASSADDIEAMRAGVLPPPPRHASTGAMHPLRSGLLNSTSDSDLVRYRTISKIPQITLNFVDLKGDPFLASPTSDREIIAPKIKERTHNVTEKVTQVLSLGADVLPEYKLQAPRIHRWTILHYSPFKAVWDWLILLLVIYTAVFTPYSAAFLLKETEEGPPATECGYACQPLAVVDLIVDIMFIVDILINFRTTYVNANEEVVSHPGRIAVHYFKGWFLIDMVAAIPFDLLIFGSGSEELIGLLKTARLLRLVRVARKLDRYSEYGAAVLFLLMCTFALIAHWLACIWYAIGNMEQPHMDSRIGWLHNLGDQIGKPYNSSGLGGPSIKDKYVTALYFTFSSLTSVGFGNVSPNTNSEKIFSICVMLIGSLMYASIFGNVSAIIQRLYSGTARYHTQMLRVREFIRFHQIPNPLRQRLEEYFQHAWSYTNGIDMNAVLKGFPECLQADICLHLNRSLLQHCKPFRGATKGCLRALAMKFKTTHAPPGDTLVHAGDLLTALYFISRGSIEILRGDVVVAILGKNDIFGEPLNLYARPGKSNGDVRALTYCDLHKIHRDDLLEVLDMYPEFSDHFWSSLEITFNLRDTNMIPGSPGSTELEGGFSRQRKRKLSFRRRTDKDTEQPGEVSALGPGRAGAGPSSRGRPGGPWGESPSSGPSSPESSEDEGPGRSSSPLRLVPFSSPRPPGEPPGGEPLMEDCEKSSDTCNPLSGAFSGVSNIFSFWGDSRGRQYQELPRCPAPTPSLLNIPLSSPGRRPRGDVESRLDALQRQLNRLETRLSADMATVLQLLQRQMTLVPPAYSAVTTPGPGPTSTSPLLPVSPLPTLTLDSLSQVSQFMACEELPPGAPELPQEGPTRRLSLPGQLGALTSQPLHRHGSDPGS
row,SMILES,"hERG current change (%, negative = inhibition) at 10uM"
1,O=C(O)CCc1ccc(-c2cccs2)n1NC(=O)c1ccc(Cl)cc1,9.36%
2,Cl.NC[C@@H]1O[C@H](C23CC4CC(CC(C4)C2)C3)Cc2c1ccc(O)c2O,6.01%
3,Cc1cnn(CCC(=O)NNC(=S)Nc2ccccc2)c1,-0.993%
4,CCCn1c(SCC(=O)OCc2ccccc2)nc2c1c(=O)n(C)c(=O)n2C,-28.3%
5,N/C(=N\OC(=O)c1ccc(Cl)c(Cl)c1)c1cccnc1,5.76%
6,NC(=O)N(CCC(=O)O)c1ccccc1,-2.25%
7,Cc1cc(Cl)c(OCCOCCN2CCCC(C)C2)c(Br)c1.O=C(O)C(=O)O (stereo not drawn),-61.8%
8,CC(C)(C)C(=O)Nc1cccc(-c2ncon2)c1,3.48%
9,O=C(NCCN1CCN(C(=O)c2ccc(F)cc2)CC1)c1ccc(F)cc1,-70.1%
10,CCOC(=O)c1cccc(N2C(=O)C3C(C(=O)NC4CC4)C4(C)C=CC3(O4)C2C(=O)NC(C)(C)C)c1 (stereo not drawn),12.7%
11,OCCC1CN(Cc2nc3c(s2)CCCC3)CCN1CCc1ccccc1 (stereo not drawn),-61.4%
12,CCOC(=O)/C(N=Nc1ccc(C(=O)O)cc1[N+](=O)[O-])=C(\C)O,54.9%
13,C/C(=N\NC(=O)c1cccs1)c1ccncc1,48.5%
14,CCOc1c(Cl)cc(C(=O)NCCN2CCCCC2)cc1Cl,-58.6%
15,COc1ccc(-c2nnc(SC(C)C(=O)Nc3nccs3)n2Cc2ccccc2)cc1OC (stereo not drawn),-18%
16,CCCN1CCC(NC(=O)Cc2ccccc2C)CC1,18.9%
17,COc1ccc(CNC(=O)c2cc(S(=O)(=O)N3CCOCC3)cn2C)cc1,0.824%
18,O=C1CCN2C=Nc3cccc4ccc1c2c34,3.46%
19,O=C(Nc1cccc(Cl)c1)c1cc(S(=O)(=O)N2CCCCC2)c[nH]1,-9.13%
20,CCOc1ccc(N(CCCCO)C(=S)NC(=O)c2ccc(C)c(Br)c2)cc1,-2.94%
21,Cn1ccnc1SCCNC(=O)CCc1nnc(CCCCc2ccccc2)o1,-12.9%
22,CC(C)NC(=O)C(=O)c1cn(C)c2ccccc12,6.78%

row,SMILES,"hERG current change (%, negative = inhibition) at 10uM"
1,Cc1cc(C(=O)OCC(=O)NNC(=O)c2cccs2)ccc1[N+](=O)[O-],-2.58%
2,CCC1CN(C(=O)N2CCC(C(=O)NCc3ccccc3C)CC2)c2ccccc2O1 (stereo not drawn),-6.28%
3,Cc1cccc(NC(=O)Cn2cc(C(=O)C3CC3)c3ccccc32)c1,15.5%
4,CCc1c(C)nc2ncnn2c1N1CCCC(C(=O)Nc2cc(F)ccc2C)C1 (stereo not drawn),-40.6%
5,c1ccc2cc(-c3csnn3)ccc2c1,11.3%
6,COc1cc(OC)c(OC)cc1/C=N/NC(=O)c1ccc(CSc2nc(C)cc(C)n2)cc1,13.4%
7,O=C(CS(=O)(=O)c1cn(CC(=O)N2CCOCC2)c2ccccc12)NCc1ccc(F)cc1,23.9%
8,O=C(CN1C(=O)NC2NC(=O)NC21)NN=C1CCCC1 (stereo not drawn),2.89%
9,O=C1OCCC1Sc1nnc(-c2cccnc2)n1-c1ccccc1F (stereo not drawn),8.74%
10,Cc1nc(CN2CCCC2=NC#N)n(-c2ccccc2)n1,4.04%
11,COCCNS(=O)(=O)c1cc(Br)ccc1OC,3.48%
12,CCOc1ccc(NCC(=O)c2ccc(C)cc2)cc1,7.06%
13,COc1ccc(CCNC(=O)COC(=O)c2cnc(C)cn2)cc1,11.3%
14,O=C(C1CCCCC1)N1CCC(O)(c2ccc(Cl)cc2)CC1,-10.7%
15,CCC1=C2CC[C@H]3C(=O)N(c4ccccc4)C(=O)[C@H]3[C@H]2[C@@]2(C)C(=NCC(=O)OC)OC(=O)N2C1=O,25.7%
16,Cc1ccc(-c2n[nH]c(=O)c3ccccc23)cc1S(=O)(=O)NCC1CCCO1 (stereo not drawn),-25.2%
17,Cc1cc(=O)oc2c3c(cc(OCC(=O)NCCC(=O)N[C@@H](C)C(=O)O)c12)OC(C)(C)CC3,8.02%
18,NC(=O)c1cccn1Cc1ccccc1Cl,4.3%
19,COc1cccc(C(=O)c2c[nH]c(C(=O)NCc3cccnc3)c2)c1,-8.04%
20,CC(C)=CCc1c(O)c(CC=C(C)C)c2c(c1O)-c1cc(O)c(O)cc1CC2,-1.38%
21,CCCC(=O)OCCNc1cc(SCc2ccco2)c2nonc2c1[N+](=O)[O-],-19%
22,Cc1cccc(C(=O)NCC(=O)NC(C)c2ccc(-n3ccnc3)cc2)c1 (stereo not drawn),-68.5%

row,SMILES,"hERG current change (%, negative = inhibition) at 10uM"
1,OC(CCc1cccc(Cl)c1)c1cccs1 (stereo not drawn),13%
2,COc1ccc(NC(=O)c2cccc3c(Br)cccc23)cc1,9.81%
3,Cc1ccc(Oc2ccc(NC(=O)Cn3ccsc3=N)cc2)cc1.Cl,-45.1%
4,COc1ccc(O)c(C(=O)CC(=O)c2ccccc2C)c1,18.3%
5,O=C(CSc1nnc(-c2ccccn2)n1Cc1ccccc1)N1CCCC1,-20.1%
6,Cc1ccc(C)c(N2C(=O)CC(Cc3ccccc3)C2=O)c1.Cl (stereo not drawn),15.9%
7,Cc1ccc(N(Cc2cc(=O)[nH]c3ccccc23)C(=O)CCl)c(C)c1,-6.17%
8,CCNC(=O)NC1(C(=O)Nc2ccc3c(c2)CCC3)CCCCC1,2.35%
9,COc1ccccc1NC(=O)CSc1nnc(NC(=O)C2CC2)s1,14.9%
10,CN(CC(=O)Nc1ccc(N2CCOCC2)cc1)CC(=O)Nc1ccccc1C#N,-3.76%
11,CCN(CC)S(=O)(=O)c1ccc(N2CCCC2)c(NC(=O)Cc2cc(OC)c(OC)c(OC)c2)c1,-8.43%
12,Cc1ccccc1Cn1c(CN2CCc3ccccc3C2)nc2c1c(=O)n(C)c(=O)n2C,-15.9%
13,CCN(CC)S(=O)(=O)c1ccc(Cl)c(C(=O)NC)c1,3.57%
14,COc1ccc(C(=O)NCC(=O)N/N=C/C(C)=C/c2ccco2)cc1OC,6.09%
15,COc1ccc(CCNC(=O)C(=O)NCCOc2ccccc2)cc1OC,-3.57%
16,CC(=O)c1cccc(OCC(=O)N2CCCc3ccccc32)c1,-10.9%
17,CC(Sc1nc2cc(Cl)ccc2s1)C(=O)Nc1cccc(S(=O)(=O)N2CCOCC2)c1 (stereo not drawn),-34.3%
18,Cc1ccc2nc(NC(=O)c3ccc(Br)o3)sc2c1,20.6%
19,O=C(CN1CCN(Cc2ccc3c(c2)OCO3)CC1)Nc1ccc2c(c1)OCO2,-72.5%
20,COc1ccc(NC(=O)C(=O)NCCN2CCN(C(=O)c3cccc(Br)c3)CC2)cc1,-31%
21,Cc1ccc2c(c1)-c1[nH]c(=S)ncc1CS2,28.2%
22,CC(C)N(CC(N)=O)C(=O)Cc1coc2cc3c(cc12)CCC3,2.54%

row,SMILES,"hERG current change (%, negative = inhibition) at 10uM"
1,Cc1ccn2c(NC(=O)c3cccs3)c(-c3ccccc3)nc2c1,-0.701%
2,COc1ccccc1/C=C/C(=O)NCC(=O)N/N=C/c1ccc2c(c1)OCO2,1.44%
3,Cc1cc(C)nc(NS(=O)(=O)c2ccc(NC(=O)CSc3nc4ccccc4[nH]3)cc2)n1,-18.2%
4,Cc1ccc(N(C(=O)c2ccccn2)C(C(=O)NC2CCCCC2)c2ccncc2)cc1 (stereo not drawn),3.84%
5,Nc1ccccc1-c1nc2ccccc2[nH]c1=O,14.8%
6,Clc1ccc(-n2nnnc2-c2cnc(-c3ccncc3)nc2-c2cccs2)cc1,-23.8%
7,O=C(Nc1cccc(O)c1)c1ccc(NC(=O)c2cccs2)cc1,12.9%
8,CCC1(CC)C(=O)C2=C3C1[C@H](C(=O)OC)C=C(C(=O)OC)C[C@H]3[C@H]1C(=O)N(Cc3ccccc3)C(=O)[C@H]1[C@H]2C (stereo partly drawn),-17.2%
9,COc1ccc2c(CC(=O)N3CCN(S(=O)(=O)c4ccc(F)cc4)CC3)coc2c1,-20.5%
10,Cc1ccc2c(C(=O)CN3CCCC(C)C3)c(C)[nH]c2c1 (stereo not drawn),-14.8%
11,C[N+](C)(C)C[C@H](O)CC(=O)[O-],2.68%
12,O=C(COC(=O)Cc1ccc(F)cc1)NC1CCS(=O)(=O)C1 (stereo not drawn),1.22%
13,CCOC(=O)C[C@H]1c2cc(C(F)(F)F)ccc2S(=O)(=O)N1Cc1ccccc1,-34.5%
14,Cn1cc(CN2CCC(C(=O)Nc3cccc(-c4cccc(F)c4)c3)CC2)cn1,-67.4%
15,O=C(Nc1nnc(S(=O)(=O)N2CCCCCC2)s1)c1ccc(Br)cc1,-0.762%
16,O=C(CN1C(=O)NC2(CCCc3ccccc32)C1=O)NCc1cccs1 (stereo not drawn),6.2%
17,CCCCNC(=O)CCn1nc(-c2ccc(C)cc2)c2ccccc2c1=O,-18%
18,C=CCOC(=O)C1=C[C@@H](c2cn(C(C)=O)c3ccccc23)C[C@@H](OCCCCO)O1,-43.9%
19,Cc1oc2cc(Br)c(O)c(Br)c2c1C(=O)c1ccccc1,-35%
20,COc1ccc(C)cc1S(=O)(=O)N1CCN(C)CC1c1ccccc1.Cl (stereo not drawn),-8.75%
21,Cc1ccc(NC(=O)C2CCN(S(=O)(=O)c3ccc4c(c3)NC(=O)CO4)CC2)cc1,-12.5%
